Data published in the supplement of paper PMC4967469.
IC50 is the fitted dose that halves viability relative to control wells, and lower means more sensitive; fits outside the tested doses are given as limits. AUC sums up the same curve from the lowest dose to the 256-fold higher top dose; the more sensitive the line, the further below 1. An inferred top dose comes from the curve model; the source does not state it.

Each cell line was assayed with CC1=C(C(=O)Nc2cc3cn[nH]c3cc2F)C(c2ccc(C(F)(F)F)cc2)CC(=O)N1 [GSK429286A] (assay: Viability of human cancer cell lines after 72 h of drug (GDSC screen)). Conditions: top dose inferred.
Protocol: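 Human cancer cell lines in 384-well plates, medium with 10% serum, drug for 72 h over a 256-fold dose range (nine 2-fold or five 4-fold steps up to the top dose). Adherent lines were fixed and stained with the nucleic acid dye Syto60, suspension lines read with resazurin; signal relative to control wells, capped at 0 and 100%. One two-parameter sigmoid per drug and line, fitted in a mixed model over all curves with the slope shared within a line.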

Point of comparison: “KURAMOCHI (ovary, adherent, top dose 20 µM)”, AUC 0.984. Against it:
- JAR (urogenital system, adherent, top dose 20 µM) — lower, 0.964
- JEG-3 (urogenital system, adherent, top dose 20 µM) — higher, 0.991
- JHH-1 (liver, adherent, top dose 20 µM) — lower, 0.983
- JHH-2 (liver, adherent, top dose 20 µM) — higher, 0.986
- JHH-4 (liver, adherent, top dose 20 µM) — higher, 0.987
- JHH-6 (liver, adherent, top dose 20 µM) — higher, 0.985
- JHH-7 (liver, adherent, top dose 20 µM) — higher, 0.985
- JHOS-2 (ovary, adherent, top dose 20 µM) — lower, 0.976
- JHOS-3 (ovary, adherent, top dose 20 µM) — the same, 0.984
- JHU-011 (head and neck, adherent, top dose 20 µM) — lower, 0.981
- JHU-022 (head and neck, adherent, top dose 20 µM) — lower, 0.941
- JIMT-1 (breast, adherent, top dose 20 µM) — lower, 0.983
- JJN-3 (haematopoietic neoplasm, suspension, top dose 20 µM) — lower, 0.966
- JM1 (B-cell lymphoma, suspension, top dose 20 µM) — lower, 0.898
- JSC-1 (B-cell lymphoma, suspension, top dose 20 µM) — lower, 0.859
- JURL-MK1 (chronic myeloid leukaemia, suspension, top dose 20 µM) — lower, 0.945
- JVM-2 (lymphoid neoplasm, suspension, top dose 20 µM) — lower, 0.959
- JVM-3 (lymphoid neoplasm, suspension, top dose 20 µM) — the same, 0.984
- JiyoyeP-2003 (Burkitt lymphoma, suspension, top dose 20 µM) — lower, 0.978
- K2 (melanoma, adherent, top dose 20 µM) — lower, 0.976
- K5 (thyroid, adherent, top dose 20 µM) — higher, 0.987
- KALS-1 (glioma, adherent, top dose 20 µM) — lower, 0.947
- KARPAS-45 (lymphoblastic leukaemia, suspension, top dose 20 µM) — lower, 0.779
- KARPAS-299 (anaplastic large cell lymphoma, suspension, top dose 20 µM) — lower, 0.983
- KARPAS-422 (B-cell lymphoma, suspension, top dose 20 µM) — lower, 0.941
- KARPAS-620 (haematopoietic neoplasm, suspension, top dose 20 µM) — lower, 0.954
- KASUMI-1 (acute myeloid leukaemia, suspension, top dose 20 µM) — lower, 0.499
- KCL-22 (chronic myeloid leukaemia, suspension, top dose 20 µM) — lower, 0.944
- KE-37 (lymphoblastic leukaemia, suspension, top dose 20 µM) — lower, 0.691
- KELLY (neuroblastoma, adherent, top dose 20 µM) — lower, 0.952
- KG-1 (acute myeloid leukaemia, suspension, top dose 20 µM) — lower, 0.957
- KGN (ovary, adherent, top dose 20 µM) — lower, 0.966
- KINGS-1 (glioma, adherent, top dose 20 µM) — lower, 0.978
- KLE (endometrium, adherent, top dose 20 µM) — lower, 0.976
- KM12 (large intestine, adherent, top dose 20 µM) — lower, 0.982
- KM-H2 (Hodgkin lymphoma, suspension, top dose 20 µM) — the same, 0.984
- KMH-2 (thyroid, adherent, top dose 20 µM) — lower, 0.967
- KMOE-2 (acute myeloid leukaemia, suspension, top dose 20 µM) — lower, 0.968
- KMRC-1 (kidney, adherent, top dose 20 µM) — higher, 0.986
- KMRC-20 (kidney, adherent, top dose 20 µM) — lower, 0.979
- KMS-11 (myeloma, suspension, top dose 20 µM) — lower, 0.979
- KMS-12-BM (myeloma, suspension, top dose 20 µM) — lower, 0.983
- KNS-42 (glioma, adherent, top dose 20 µM) — lower, 0.976
- KNS-81-FD (glioma, adherent, top dose 20 µM) — lower, 0.962
- KON (head and neck, adherent, top dose 20 µM) — lower, 0.981
- KOPN-8 (B-cell leukaemia, suspension, top dose 20 µM) — lower, 0.951
- KP-1N (pancreas, adherent, top dose 10.24 µM) — lower, 0.971
- KP-2 (pancreas, adherent, top dose 20 µM) — the same, 0.984
- KP-3 (pancreas, adherent, top dose 20 µM) — lower, 0.979
- KP-4 (pancreas, adherent, top dose 20 µM) — lower, 0.928
- KP-N-YN (neuroblastoma, adherent, top dose 20 µM) — lower, 0.958
- KP-N-YS (neuroblastoma, adherent, top dose 20 µM) — lower, 0.765
- KS-1 (glioma, adherent, top dose 20 µM) — lower, 0.819
- KU812 (chronic myeloid leukaemia, suspension, top dose 20 µM) — lower, 0.885
- KU-19-19 (bladder, adherent, top dose 20 µM) — lower, 0.982
- KY821 (leukaemia, suspension, top dose 20 µM) — lower, 0.976
- KYAE-1 (oesophagus, suspension, top dose 20 µM) — lower, 0.942
- KYM-1 (rhabdomyosarcoma, adherent, top dose 20 µM) — higher, 0.991
- KYSE-50 (oesophagus, adherent, top dose 20 µM) — lower, 0.974
- KYSE-70 (oesophagus, adherent, top dose 20 µM) — lower, 0.982
- KYSE-140 (oesophagus, adherent, top dose 20 µM) — lower, 0.917
- KYSE-150 (oesophagus, adherent, top dose 20 µM) — lower, 0.96
- KYSE-180 (oesophagus, adherent, top dose 20 µM) — lower, 0.967
- KYSE-220 (oesophagus, adherent, top dose 20 µM) — lower, 0.982
- KYSE-270 (oesophagus, adherent, top dose 20 µM) — lower, 0.971
- KYSE-410 (oesophagus, adherent, top dose 20 µM) — lower, 0.961
- KYSE-450 (oesophagus, adherent, top dose 20 µM) — lower, 0.94
- KYSE-510 (oesophagus, adherent, top dose 20 µM) — higher, 0.986
- KYSE-520 (oesophagus, adherent, top dose 20 µM) — lower, 0.981
- L-363 (myeloma, suspension, top dose 20 µM) — lower, 0.945
- L-428 (Hodgkin lymphoma, suspension, top dose 20 µM) — higher, 0.989
- L-540 (Hodgkin lymphoma, suspension, top dose 20 µM) — lower, 0.957
- L-1236 (Hodgkin lymphoma, suspension, top dose 20 µM) — lower, 0.978
- LAMA-84 (chronic myeloid leukaemia, suspension, top dose 20 µM) — lower, 0.921
- LAN-6 (neuroblastoma, adherent, top dose 20 µM) — higher, 0.985
- LB373-MEL-D (melanoma, adherent, top dose 20 µM) — higher, 0.989
- LB647-SCLC (small cell lung carcinoma, semi-adherent, top dose 20 µM) — lower, 0.965
- LB771-HNC (head and neck, adherent, top dose 20 µM) — lower, 0.973
- LB831-BLC (bladder, adherent, top dose 20 µM) — lower, 0.894
- LB996-RCC (kidney, adherent, top dose 20 µM) — lower, 0.978

Point of comparison: “KARPAS-45 (lymphoblastic leukaemia, suspension, top dose 20 µM)”, IC50 6.79 µM. Against it:
- JAR (urogenital system, adherent, top dose 20 µM) — higher, > 20 µM
- JEG-3 (urogenital system, adherent, top dose 20 µM) — higher, > 20 µM
- JHH-1 (liver, adherent, top dose 20 µM) — higher, > 20 µM
- JHH-2 (liver, adherent, top dose 20 µM) — higher, > 20 µM
- JHH-4 (liver, adherent, top dose 20 µM) — higher, > 20 µM
- JHH-6 (liver, adherent, top dose 20 µM) — higher, > 20 µM
- JHH-7 (liver, adherent, top dose 20 µM) — higher, > 20 µM
- JHOS-2 (ovary, adherent, top dose 20 µM) — higher, > 20 µM
- JHOS-3 (ovary, adherent, top dose 20 µM) — higher, > 20 µM
- JHU-011 (head and neck, adherent, top dose 20 µM) — higher, > 20 µM
- JHU-022 (head and neck, adherent, top dose 20 µM) — higher, > 20 µM
- JIMT-1 (breast, adherent, top dose 20 µM) — higher, > 20 µM
- JJN-3 (haematopoietic neoplasm, suspension, top dose 20 µM) — higher, > 20 µM
- JM1 (B-cell lymphoma, suspension, top dose 20 µM) — 2.8-fold higher, 18.9 µM
- JSC-1 (B-cell lymphoma, suspension, top dose 20 µM) — 2.4-fold higher, 16.3 µM
- JURL-MK1 (chronic myeloid leukaemia, suspension, top dose 20 µM) — higher, > 20 µM
- JVM-2 (lymphoid neoplasm, suspension, top dose 20 µM) — higher, > 20 µM
- JVM-3 (lymphoid neoplasm, suspension, top dose 20 µM) — higher, > 20 µM
- JiyoyeP-2003 (Burkitt lymphoma, suspension, top dose 20 µM) — higher, > 20 µM
- K2 (melanoma, adherent, top dose 20 µM) — higher, > 20 µM
- K5 (thyroid, adherent, top dose 20 µM) — higher, > 20 µM
- KALS-1 (glioma, adherent, top dose 20 µM) — higher, > 20 µM
- KARPAS-299 (anaplastic large cell lymphoma, suspension, top dose 20 µM) — higher, > 20 µM
- KARPAS-422 (B-cell lymphoma, suspension, top dose 20 µM) — higher, > 20 µM
- KARPAS-620 (haematopoietic neoplasm, suspension, top dose 20 µM) — higher, > 20 µM
- KASUMI-1 (acute myeloid leukaemia, suspension, top dose 20 µM) — 5.5-fold lower, 1.24 µM
- KCL-22 (chronic myeloid leukaemia, suspension, top dose 20 µM) — higher, > 20 µM
- KE-37 (lymphoblastic leukaemia, suspension, top dose 20 µM) — 1.8-fold lower, 3.69 µM
- KELLY (neuroblastoma, adherent, top dose 20 µM) — higher, > 20 µM
- KG-1 (acute myeloid leukaemia, suspension, top dose 20 µM) — higher, > 20 µM
- KGN (ovary, adherent, top dose 20 µM) — higher, > 20 µM
- KINGS-1 (glioma, adherent, top dose 20 µM) — higher, > 20 µM
- KLE (endometrium, adherent, top dose 20 µM) — higher, > 20 µM
- KM12 (large intestine, adherent, top dose 20 µM) — higher, > 20 µM
- KM-H2 (Hodgkin lymphoma, suspension, top dose 20 µM) — higher, > 20 µM
- KMH-2 (thyroid, adherent, top dose 20 µM) — higher, > 20 µM
- KMOE-2 (acute myeloid leukaemia, suspension, top dose 20 µM) — higher, > 20 µM
- KMRC-1 (kidney, adherent, top dose 20 µM) — higher, > 20 µM
- KMRC-20 (kidney, adherent, top dose 20 µM) — higher, > 20 µM
- KMS-11 (myeloma, suspension, top dose 20 µM) — higher, > 20 µM
- KMS-12-BM (myeloma, suspension, top dose 20 µM) — higher, > 20 µM
- KNS-42 (glioma, adherent, top dose 20 µM) — higher, > 20 µM
- KNS-81-FD (glioma, adherent, top dose 20 µM) — higher, > 20 µM
- KON (head and neck, adherent, top dose 20 µM) — higher, > 20 µM
- KOPN-8 (B-cell leukaemia, suspension, top dose 20 µM) — higher, > 20 µM
- KP-1N (pancreas, adherent, top dose 10.24 µM) — higher, > 10.2 µM
- KP-2 (pancreas, adherent, top dose 20 µM) — higher, > 20 µM
- KP-3 (pancreas, adherent, top dose 20 µM) — higher, > 20 µM
- KP-4 (pancreas, adherent, top dose 20 µM) — higher, > 20 µM
- KP-N-YN (neuroblastoma, adherent, top dose 20 µM) — higher, > 20 µM
- KP-N-YS (neuroblastoma, adherent, top dose 20 µM) — within 1.5-fold, 8.36 µM
- KS-1 (glioma, adherent, top dose 20 µM) — 2.2-fold higher, 15.2 µM
- KU812 (chronic myeloid leukaemia, suspension, top dose 20 µM) — 2.7-fold higher, 18.5 µM
- KU-19-19 (bladder, adherent, top dose 20 µM) — higher, > 20 µM
- KURAMOCHI (ovary, adherent, top dose 20 µM) — higher, > 20 µM
- KY821 (leukaemia, suspension, top dose 20 µM) — higher, > 20 µM
- KYAE-1 (oesophagus, suspension, top dose 20 µM) — higher, > 20 µM
- KYM-1 (rhabdomyosarcoma, adherent, top dose 20 µM) — higher, > 20 µM
- KYSE-50 (oesophagus, adherent, top dose 20 µM) — higher, > 20 µM
- KYSE-70 (oesophagus, adherent, top dose 20 µM) — higher, > 20 µM
- KYSE-140 (oesophagus, adherent, top dose 20 µM) — higher, > 20 µM
- KYSE-150 (oesophagus, adherent, top dose 20 µM) — higher, > 20 µM
- KYSE-180 (oesophagus, adherent, top dose 20 µM) — higher, > 20 µM
- KYSE-220 (oesophagus, adherent, top dose 20 µM) — higher, > 20 µM
- KYSE-270 (oesophagus, adherent, top dose 20 µM) — higher, > 20 µM
- KYSE-410 (oesophagus, adherent, top dose 20 µM) — higher, > 20 µM
- KYSE-450 (oesophagus, adherent, top dose 20 µM) — higher, > 20 µM
- KYSE-510 (oesophagus, adherent, top dose 20 µM) — higher, > 20 µM
- KYSE-520 (oesophagus, adherent, top dose 20 µM) — higher, > 20 µM
- L-363 (myeloma, suspension, top dose 20 µM) — higher, > 20 µM
- L-428 (Hodgkin lymphoma, suspension, top dose 20 µM) — higher, > 20 µM
- L-540 (Hodgkin lymphoma, suspension, top dose 20 µM) — higher, > 20 µM
- L-1236 (Hodgkin lymphoma, suspension, top dose 20 µM) — higher, > 20 µM
- LAMA-84 (chronic myeloid leukaemia, suspension, top dose 20 µM) — higher, > 20 µM
- LAN-6 (neuroblastoma, adherent, top dose 20 µM) — higher, > 20 µM
- LB373-MEL-D (melanoma, adherent, top dose 20 µM) — higher, > 20 µM
- LB647-SCLC (small cell lung carcinoma, semi-adherent, top dose 20 µM) — higher, > 20 µM
- LB771-HNC (head and neck, adherent, top dose 20 µM) — higher, > 20 µM
- LB831-BLC (bladder, adherent, top dose 20 µM) — higher, > 20 µM
- LB996-RCC (kidney, adherent, top dose 20 µM) — higher, > 20 µM
